Source: US9920069B2, “Compounds for treatment of fluoroquinolone-resistant bacteria” (The Board of Trustees of the University of Illinois, priority 2014, dated 2018)
Read-outs that look alike come from different tables or passages of the source.

How the values were obtained:
S83L E. coli DNA gyrase = molecular target: T1, S83L E. coli DNA gyrase (Escherichia coli, UniProt P0AES4, S83L); format: biochemical
T1 construct: His tag (pTrcHisA vector, purified on Ni-NTA); made in house; host or cells: E. coli One Shot BL21 Star (DE3)

S83R E. coli DNA gyrase = molecular target: T2, S83R E. coli DNA gyrase (Escherichia coli, UniProt P0AES4, S83R); format: biochemical
T2 construct: His tag (pTrcHisA vector, purified on Ni-NTA); made in house; host or cells: E. coli One Shot BL21 Star (DE3)

[1] = test system: low level CIP resistant strains of S. aureus ATCC 29213 (ParC mutation); format: cell-based

SMILES	inhibition of S83L DNA gyrase (S83L E. coli DNA gyrase)	inhibition of S83R DNA gyrase (S83R E. coli DNA gyrase)	sensitivity of low level CIP resistant strains [1]	concentration giving significant buildup of OC DNA (S83L E. coli DNA gyrase) [µM]	inhibition of S83R DNA gyrase (S83R E. coli DNA gyrase; in words)
O=C(O)c1cn(C2CC2)c2cc(N3CCNCC3)c(F)cc2c1=O [CIP, ciprofloxacin, reference compound]	much less effective	much less effective	–	–	–
Cc1cc(=O)n(C)c2c3c4c(cc12)c(C)cc(=O)n4CO3 [DNM, deoxynybomycin]	–	–	not sensitive	0.17	buildup of OC DNA
CCn1c(=O)cc(C)c2cc3c(C)cc(=O)n4c3c(c21)OC4 [DNM-2]	–	–	not sensitive	–	buildup of OC DNA
